Results from the supplement of paper PMC6089552.
About 300 (9.4%) of roughly 3,200 compounds showed activity. The entries are a selection whose mix differs from that of the whole data set.

Tested on: A673/TR/shEF
Test: cell viability (LOESS-normalised, relative to median of negative controls) (log2 ratio); higher = more viable cells (less compound effect), active = hit call of the paper (over 3 MAD below the median)
Conditions: treatment time: 72 h
In short: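 A673/TR/shEF Ewing sarcoma cells (1,500 per well, 384-well plates) were grown with or without doxycycline to induce EWS-FLI1 shRNA knockdown, starting 24 h before compounds. Library compounds at two or more concentrations, with DMSO controls, were added for three days. Cell viability was read by CellTiter-Glo luminescence on an Envision reader, then LOESS-corrected per plate, divided by the median of negative controls and log2-transformed. Hits were wells at least three median absolute deviations from the median of all screened wells.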

[1] = 0.25 µM, library screen: screen1, EWS-FLI1 expression: high (no doxycycline)
[2] = 0.25 µM, library screen: screen1, EWS-FLI1 expression: low (doxycycline-induced shRNA knockdown)
[3] = 2.5 µM, library screen: screen1, EWS-FLI1 expression: high (no doxycycline)
[4] = 2.5 µM, library screen: screen1, EWS-FLI1 expression: low (doxycycline-induced shRNA knockdown)
[5] = 0.103 µM, library screen: screen3, EWS-FLI1 expression: high (no doxycycline)
[6] = 0.103 µM, library screen: screen3, EWS-FLI1 expression: low (doxycycline-induced shRNA knockdown)
[7] = 0.25 µM, library screen: screen2, EWS-FLI1 expression: high (no doxycycline)
[8] = 0.25 µM, library screen: screen2, EWS-FLI1 expression: low (doxycycline-induced shRNA knockdown)
[9] = 0.308 µM, library screen: screen3, EWS-FLI1 expression: high (no doxycycline)
[10] = 0.308 µM, library screen: screen3, EWS-FLI1 expression: low (doxycycline-induced shRNA knockdown)
[11] = 0.926 µM, library screen: screen3, EWS-FLI1 expression: high (no doxycycline)
[12] = 0.926 µM, library screen: screen3, EWS-FLI1 expression: low (doxycycline-induced shRNA knockdown)
[13] = 2.5 µM, library screen: screen2, EWS-FLI1 expression: high (no doxycycline)
[14] = 2.5 µM, library screen: screen2, EWS-FLI1 expression: low (doxycycline-induced shRNA knockdown)
[15] = 2.8 µM, library screen: screen3, EWS-FLI1 expression: high (no doxycycline)
[16] = 2.8 µM, library screen: screen3, EWS-FLI1 expression: low (doxycycline-induced shRNA knockdown)
[17] = 8.3 µM, library screen: screen3, EWS-FLI1 expression: high (no doxycycline)
[18] = 8.3 µM, library screen: screen3, EWS-FLI1 expression: low (doxycycline-induced shRNA knockdown)
[19] = 25 µM, library screen: screen3, EWS-FLI1 expression: high (no doxycycline)
[20] = 25 µM, library screen: screen3, EWS-FLI1 expression: low (doxycycline-induced shRNA knockdown)

Measured: cell viability (log2)

CC1=C2C(O)C(=O)OC3CC4C(C)(C)C(=O)C=C[C@]4(C)C(CC1)[C@]23C (stereo partly specified)
inactive: [1] 0.0331 | [2] -0.0037 | [3] 0.0845 | [4] 0.0593

Nc1ccc(S(=O)(=O)Nc2ccc(Cl)nn2)cc1
inactive: [1] 0.0457 | [2] 0.0408 | [3] 0.127 | [4] 0.0691

CC(=O)NC(C(=O)O)C(C)(C)SN=O (stereo unspecified)
inactive: [1] 0.0237 | [2] 0.0738 | [3] 0.0839 | [4] 0.0215

COc1ccccc1C1NC(=S)NC(C)=C1C(=O)Nc1ccccc1Cl (stereo unspecified)
inactive: [1] 0.153 | [2] 0.0944 | [3] 0.107 | [4] 0.0425

COc1cc(CN2CCN(Cc3ccc(C(F)(F)F)cc3)CC2)cc(OC)c1OC
inactive: [1] 0.0718 | [2] 0.0154 | [3] 0.146 | [4] 0.075

C[n+]1cccc(C(=O)[O-])c1
inactive: [1] -0.0209 | [2] 0.0759 | [3] 0.123 | [4] 0.144

COc1cc(/C=C/C(=O)O)ccc1O
inactive: [1] 0.0581 | [2] -0.0401 | [3] 0.12 | [4] -0.00647

NS(=O)(=O)c1cc2c(cc1Cl)NCNS2(=O)=O
inactive: [5] 0.0475 | [6] 0.0356 | [1] 0.106 | [2] -0.00905 | [7] 0.0648 | [8] -0.00556 | [9] 0.0838 | [10] 0.115 | [11] 0.134 | [12] -0.0103 | [3] 0.141 | [4] 0.0832 | [13] 0.089 | [14] -0.0555 | [15] 0.201 | [16] 0.0285 | [17] 0.0896 | [18] 0.061 | [19] 0.181 | [20] 0.0767

NC(N)=N/N=C/c1c(Cl)cccc1Cl
inactive: [1] 0.0575 | [2] 0.0266 | [7] 0.133 | [8] 0.0666 | [3] 0.115 | [4] 0.0808 | [13] 0.171 | [14] 0.124

CN(C)CCc1c[nH]c2ccc(C[C@H]3COC(=O)N3)cc12
inactive: [5] 0.158 | [6] 0.00174 | [9] 0.131 | [10] 0.0288 | [11] 0.0978 | [12] 0.109 | [15] 0.103 | [16] 0.0615 | [17] 0.084 | [18] 0.14 | [19] 0.026 | [20] 0.0892

CN(C)CCC=C1c2ccccc2C=Cc2ccccc21
inactive: [1] 0.131 | [2] 0.0615 | [7] 0.206 | [8] 0.141 | [3] 0.117 | [4] 0.104 | [13] 0.126 | [14] 0.0683
